The text below walks through data of the supplement of paper PMC12645437, “Orthogonal IMiD-Degron Pairs Induce Selective Protein Degradation in Cells” (ACS Chemical Biology, 2025).

Some of the results follow.
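Further: jurkat cells carrying a lentiviral library of mutant zinc finger degrons fused to EGFP plus mCherry, mCherry+ cells FACS sorted, degron abundance counted by next-generation sequencing.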

For this assay, the target named is no compound (DMSO). The experiment in a line: log2 fold change of degron read counts, EGFP-low vs EGFP+ sorted cells; higher = lower degron-EGFP level without compound (poor expression or instability). As to conditions: compound: DMSO control; 18 h.
Take FWCPICGACFTQKGNLLRHIKL: the “log2 fold change of degron read counts” value was determined as 1.43.

Regarding FSCNICGAQFTQKGNLLRHIKL, the “log2 fold change of degron read counts” value was -0.596.

In the case of FTCDICGASFTQKGNLLRHIKL, the “log2 fold change of degron read counts” value was -1.38.

On to FICPICGRGFTQKGNLLRHIKL, for which the “log2 fold change of degron read counts” value is -0.105.

Consider FDCNQCGAMFTQKGNLLRHIKL, for which the “log2 fold change of degron read counts” value was -0.463.

Consider FLCPICGAAFTQKGNLLRHIKL, for which the “log2 fold change of degron read counts” value was found to be 0.0826.

In the case of FDCNVCGAMFTQKGNLLRHIKL, the “log2 fold change of degron read counts” value was -0.562.

Consider FLCEICGHEFTQKGNLLRHIKL, for which the “log2 fold change of degron read counts” value was -3.75.

Take FSCPQCGARFTQKGNLLRHIKL: the “log2 fold change of degron read counts” value is -0.551.

As for LNCNQCGFLCTQKGNLLRHIKL, the “log2 fold change of degron read counts” value was 1.26.

With FMCNVCGAFFTQKGNLLRHIKL, the “log2 fold change of degron read counts” value was 0.156.

For the sequence FICNQCGRAFTQKGNLLRHIKL, the “log2 fold change of degron read counts” value was -0.792.

For the sequence FKCEVCGATFTQKGNLLRHIKL, the “log2 fold change of degron read counts” value was -1.45.

As to FSCNQCGAKFTQKGNLLRHIKL, the “log2 fold change of degron read counts” value was -0.809.

Take FFCDQCGAGFTQKGNLLRHIKL: the “log2 fold change of degron read counts” value was -1.08.

Consider FRCSVCGHWFTQKGNLLRHIKL, for which the “log2 fold change of degron read counts” value worked out at 0.0806.

For LHCNQCGFLCTQKGNLLRHIKL, the “log2 fold change of degron read counts” value came to 1.16.

Turning to FCCDICGAMFTQKGNLLRHIKL, the “log2 fold change of degron read counts” value was -0.715.

Turning to FSCNQCGHWFTQKGNLLRHIKL, the “log2 fold change of degron read counts” value was 1.34.

Regarding FQCNQCGAYFTQKGNLLRHIKL, the “log2 fold change of degron read counts” value was -1.18.

Turning to FFCPVCGAMFTQKGNLLRHIKL, the “log2 fold change of degron read counts” value was found to be 0.692.

With FVCDQCGASFTQKGNLLRHIKL, the “log2 fold change of degron read counts” value was -2.82.

For LVCPICGFMCTQKGNLLRHIKL, the “log2 fold change of degron read counts” value worked out at 0.504.

Turning to FRCDQCGAMFTQKGNLLRHIKL, the “log2 fold change of degron read counts” value is -0.893.

As to FACEICGRGFTQKGNLLRHIKL, the “log2 fold change of degron read counts” value is -1.13.

As to FICEICGAEFTQKGNLLRHIKL, the “log2 fold change of degron read counts” value was -1.19.

On to FICEVCGAPFTQKGNLLRHIKL, for which the “log2 fold change of degron read counts” value is -1.75.

In the case of FFCPQCGAPFTQKGNLLRHIKL, the “log2 fold change of degron read counts” value was -0.962.

In the case of FCCSVCGHFFTQKGNLLRHIKL, the “log2 fold change of degron read counts” value came out at 0.384.

In the case of FMCNQCGAFFTQKGNLLRHIKL, the “log2 fold change of degron read counts” value was 0.257.

As for FFCPICGATFTQKGNLLRHIKL, the “log2 fold change of degron read counts” value was -0.233.

Take FWCNVCGAGFTQKGNLLRHIKL: the “log2 fold change of degron read counts” value was 0.693.

Regarding FICPICGHHFTQKGNLLRHIKL, the “log2 fold change of degron read counts” value is -0.78.

FCCNICGAMFTQKGNLLRHIKL: the “log2 fold change of degron read counts” value is -0.499.

For FICNVCGASFTQKGNLLRHIKL, the “log2 fold change of degron read counts” value was -1.79.

Regarding FQCEVCGACFTQKGNLLRHIKL, the “log2 fold change of degron read counts” value is -1.68.

For FQCEQCGAFFTQKGNLLRHIKL, the “log2 fold change of degron read counts” value was -1.32.

Turning to FDCNQCGRQFTQKGNLLRHIKL, the “log2 fold change of degron read counts” value was -0.133.

Regarding FGCEQCGAAFTQKGNLLRHIKL, the “log2 fold change of degron read counts” value was -0.601.

In the case of FCCEICGAFFTQKGNLLRHIKL, the “log2 fold change of degron read counts” value is -0.519.

For FGCDQCGAIFTQKGNLLRHIKL, the “log2 fold change of degron read counts” value was -0.963.

As to LVCPICGFSCTQKGNLLRHIKL, the “log2 fold change of degron read counts” value worked out at 0.666.

In the case of FNCDVCGAKFTQKGNLLRHIKL, the “log2 fold change of degron read counts” value was -1.47.

Take FKCSVCGHNFTQKGNLLRHIKL: the “log2 fold change of degron read counts” value is -0.273.

In the case of FYCNQCGAPFTQKGNLLRHIKL, the “log2 fold change of degron read counts” value came out at 0.202.

Turning to FGCNQCGRHFTQKGNLLRHIKL, the “log2 fold change of degron read counts” value is 0.301.

Take FKCEVCGAKFTQKGNLLRHIKL: the “log2 fold change of degron read counts” value is -1.23.

As to FRCPQCGAEFTQKGNLLRHIKL, the “log2 fold change of degron read counts” value was -1.28.

On to FCCPICGHGFTQKGNLLRHIKL, for which the “log2 fold change of degron read counts” value is -0.395.

In the case of FSCDQCGAHFTQKGNLLRHIKL, the “log2 fold change of degron read counts” value was -2.07.
